Measurements: the supplement of paper PMC10369915
Some of the results follow. Cut-off read from the data, not from the text of the source: active = 3.2 or more and inactive = the rest. Most of these values are background signal.

B1: SMN1_Y43 (peptide)
chain: ALIKAYDKAVA
B2: SRC_Y522_E527K (peptide)
chain: AFLEDYFTSTK
B3: SRD5A2_Y91 (peptide)
chain: LFCVHYFHRTF
B4: SMG1_Y2254_YF (peptide)
chain: PSELFYSKIGP
B5: SRA1_Y35_Q32E (peptide)
chain: PPEFSYGLQTQ
B6: SMCHD1_Y283_Y283C_YF (peptide)
chain: NKEAICSGFIR
B7: SRA1_Y35 (peptide)
chain: PPQFSYGLQTQ
B8: SPTLC2_Y178_YF (peptide)
chain: MGSFNYLGFAR
B9: SMC1A_Y714_R711W (peptide)
chain: QMWLKYSQSDL
B10: SMCHD1_Y283_Y283C (peptide)
chain: NKEAICSGYIR
B11: SPAST_Y604_W607C (peptide)
chain: QTLEAYIRCNK
B12: SMN1_Y109_A111G (peptide)
chain: EDGCIYPGTIA
B13: SPTLC2_Y178_A182P_YF (peptide)
chain: MGSFNYLGFPR
B14: SMARCE1_Y73_Y73C (peptide)
chain: KPLMPCMRYSR
B15: SORBS1_Y485_Y485C (peptide)
chain: KSEMSCIDGEK
B16: SPATA17_Y83_YF (peptide)
chain: TVQVAYFTMMM
B17: SORL1_Y139_Y141C_YF (peptide)
chain: DVFVSYDCGKS
B18: STAT1_Y170_Y170N (peptide)
chain: DLQDENDFKCK
B19: SMG1_Y2253_G2258S (peptide)
chain: RPSELYYSKIS

The binders below were run against SHP2 C-SH2 domain E139D (assay: enrichment score (SH2-bound / input frequency) (ratio); bacterial display of known human phosphotyrosine sites (pTyr-Var adds point mutants) read by sequencing; higher = stronger binding; tyrosines were phosphorylated by kinases first). Conditions: peptide library: pTyr-Var.
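Note: displayed peptides selected on beads carrying the immobilized SH2 domain, with library peptides lacking any tyrosine serving as negative controls.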

Enrichment score, inactive:
B1 1.02, B2 1.4, B3 2.67, B4 1.02, B5 0.864, B6 0.979, B7 0.962, B8 1.21, B9 2.16, B10 0.77, B11 0.707, B12 0.749, B13 1.31, B14 0.26, B15 0.458, B16 1.05, B17 0.673, B18 0.499, B19 0.984

Each binder was assayed against SHP2 C-SH2 domain wild-type in the same assay as above. Conditions: peptide library: pTyr-Var.

Enrichment score, inactive:
B1 0.913, B2 1.14, B3 2.84, B4 1.65, B5 0.757, B6 0.935, B7 0.677, B8 1.12, B9 1.13, B10 0.909, B11 0.964, B12 0.658, B13 1.01, B14 0.232, B15 0.576, B16 1.16, B17 0.991, B18 0.68, B19 1.07

These binders were tested against SHP2 N-SH2 domain L43F in the same assay as above. Conditions: peptide library: pTyr-Var.

Enrichment score, inactive:
B1 0.797, B2 1.21, B3 3.04, B4 1.04, B5 1.1, B6 0.99, B7 0.712, B8 1.04, B9 1.66, B10 0.809, B11 0.623, B12 0.68, B13 0.925, B14 0.174, B15 0.702, B16 0.966, B17 0.8, B18 0.489, B19 1.55

Each binder was assayed against SHP2 N-SH2 domain T42A in the same assay as above. Conditions: peptide library: pTyr-Var.

Enrichment score, inactive:
B1 0.77, B2 1.2, B3 2.39, B4 1.32, B5 0.754, B6 0.716, B7 0.667, B8 1.1, B9 1.16, B10 0.525, B11 0.68, B12 0.671, B13 0.932, B14 0.237, B15 0.57, B16 0.872, B17 0.744, B18 0.448, B19 1.38

These binders were tested against SHP2 N-SH2 domain T52S in the same assay as above. Conditions: peptide library: pTyr-Var.

Enrichment score, inactive:
B1 0.682, B2 1.8, B3 2.63, B4 1.47, B5 0.605, B6 0.68, B7 0.76, B8 1.13, B9 1.48, B10 0.629, B11 0.957, B12 0.531, B13 0.944, B14 0.288, B15 0.566, B16 0.891, B17 0.689, B18 0.557, B19 1.01

The binders below were run against SHP2 N-SH2 domain wild-type in the same assay as above. Conditions: peptide library: pTyr-Var.

Enrichment score, inactive:
B1 0.969, B2 1.18, B3 2.76, B4 1.07, B5 0.912, B6 0.921, B7 0.644, B8 1.09, B9 1.42, B10 0.957, B11 1.02, B12 0.924, B13 0.926, B14 0.231, B15 0.641, B16 1.2, B17 0.872, B18 0.491, B19 1.07
